# From article PMC10668032
# Some of the results follow. At the low end of the ranking, values are background and their order means little.
# Target: SIX1-Q177R homeodomain (UniProt Q15475)
# Assay: universal protein binding microarray
# Details: Universal all-10-mer PBM (8x60K, AMADID 030236), 300 nM GST-tagged protein, Alexa Fluor 488 anti-GST; buffer, salt, pH and temperature not stated; high values mean tight binding; most listed sequences are background and not binding sites; double strand, one strand shown
row,Sequence,binding signal
1,AGGCGACG,-0.103 E-score
2,AGGCTAGA,-0.0743 E-score
3,GGTACAGA,-0.119 E-score
4,AATGTCTC,0.0254 E-score
5,AGTCCGGC,-0.00563 E-score
6,CTGGACTC,-0.12 E-score
7,AATAGAGT,0.0466 E-score
8,AAGGATTC,-0.0467 E-score
9,CATTATGC,-0.0391 E-score
10,TCTACAGA,-0.176 E-score
11,AACCTCGG,0.0562 E-score
12,CATTCATA,-0.164 E-score
13,ATAGAACA,0.141 E-score
14,ATCCACAC,0.297 E-score
15,GTCAGGAC,0.0108 E-score
16,AGCCTATG,-0.149 E-score
17,CTCGCGGA,-0.268 E-score
18,ATGAGACG,-0.128 E-score
19,ACACACAC,0.315 E-score
20,TACCGCAA,0.0111 E-score
21,AAAAGACT,-0.188 E-score
22,CTGACAAG,-0.184 E-score
23,GGGCAACC,0.0973 E-score
24,GCGGGGCC,-0.0662 E-score
25,GCTGGGCC,-0.142 E-score

row,Sequence,binding signal
1,AGTTGTGA,-0.127 E-score
2,ACAGCGCC,-0.127 E-score
3,CAGGCCCC,-0.104 E-score
4,AAATGATG,-0.261 E-score
5,CAGCCACG,-0.189 E-score
6,GCTGCAAA,-0.136 E-score
7,ACGAGAAA,-0.0679 E-score
8,AGCATTGA,-0.183 E-score
9,ATGCCCGG,0.0355 E-score
10,GCGTGGCA,-0.077 E-score
11,ATGTCAAA,-0.148 E-score
12,CGTTCTAG,-0.0412 E-score
13,AGGACCGC,-0.268 E-score
14,AGGTGATA,0.129 E-score
15,AAGACTCA,-0.135 E-score
16,CCAGTTAC,0.0719 E-score
17,TATAAGGA,0.0925 E-score
18,TTGGGAAA,-0.2 E-score
19,CAATTACC,-0.0657 E-score
20,GTGTATGA,0.412 E-score
21,CGTGGTAG,-0.0925 E-score
22,AACCAGGA,-0.0866 E-score
23,CTGGGGCA,-0.15 E-score
24,ATAGGAAG,0.0255 E-score
25,GAGGAGGC,-0.202 E-score

row,Sequence,binding signal
1,ACTCTTCG,0.0294 E-score
2,CGATCATA,-0.0491 E-score
3,ACCAGAAC,0.161 E-score
4,GCCGACAA,-0.0657 E-score
5,CGTACATC,0.0867 E-score
6,ATCGAGGC,-0.219 E-score
7,ACTAGGCC,-0.19 E-score
8,ACACTGCT,0.339 E-score
9,ATCCCAAT,0.00288 E-score
10,CGGCTCTC,-0.221 E-score
11,CTGGTTCA,0.0219 E-score
12,CGGTAGTC,-0.114 E-score
13,GTTTTTTA,-0.0452 E-score
14,AAAATCTT,-0.394 E-score
15,GGAGCCTA,-0.0476 E-score
16,CTGAGAAA,-0.105 E-score
17,AGGGCCGC,0.00279 E-score
18,AGGCTTCA,-0.0936 E-score
19,CTCGGTAC,0.0692 E-score
20,ACGGCAGA,-0.165 E-score
21,ATCAAGAA,-0.229 E-score
22,ACGATTCG,0.0235 E-score
23,ATCACGAG,-0.132 E-score
24,TACACGAA,0.377 E-score
25,CCAAAAGC,-0.229 E-score

row,Sequence,binding signal
1,GTGACAAA,0.00911 E-score
2,CCACAATA,0.0179 E-score
3,AAAGCAAC,-0.0904 E-score
4,CTGTGTTC,0.175 E-score
5,CGCCTACG,-0.163 E-score
6,CAACTCCC,0.0167 E-score
7,CAGCATCA,0.0495 E-score
8,ATAATTAC,0.00456 E-score
9,AAATACAG,-0.276 E-score
10,ACCAAATC,-0.0235 E-score
11,ACTGCAGA,-0.0627 E-score
12,AATCCTCT,-0.146 E-score
13,CGGACTTC,-0.17 E-score
14,CCAGTAAC,0.161 E-score
15,AGTGGCCA,-0.102 E-score
16,ATGTACAC,0.435 E-score
17,CTCCACTA,0.103 E-score
18,ATAAGGAA,-0.177 E-score
19,AGGATTCA,-0.123 E-score
20,ACCACACT,0.27 E-score
21,GAGCTCAA,-0.123 E-score
22,GAAATGCA,-0.0778 E-score
23,AAGACGAT,-0.197 E-score
24,AGCTCATA,-0.234 E-score
25,GGGCCGGA,-0.221 E-score

row,Sequence,binding signal
1,GGTACGCA,0.0177 E-score
2,GCGCTGCA,-0.0352 E-score
3,GGAATCTA,-0.0824 E-score
4,CCGCACTC,0.088 E-score
5,AGTCATCG,-0.00985 E-score
6,AGATGGTC,-0.207 E-score
7,CCATTTGC,-0.139 E-score
8,AGGCTTAT,-0.373 E-score
9,AGAACCCC,0.182 E-score
10,AGAAGCAA,-0.0791 E-score
11,GAAGAACA,0.132 E-score
12,AATCGATA,0.0157 E-score
13,GAGAGAGA,-0.0401 E-score
14,CTCCTATC,0.091 E-score
15,GAAATCTC,-0.206 E-score
16,ACCGACTA,-0.0983 E-score
17,GCAGGACC,-0.0485 E-score
18,CGCTCGAG,-0.0966 E-score
19,CGTTGTTA,-0.108 E-score
20,AGTCGGAT,-0.0175 E-score
21,ACTTTACC,0.0271 E-score
22,GCCAGCTA,-0.0382 E-score
23,CGGCTGTA,-0.101 E-score
24,ATGCCTTG,-0.245 E-score
25,GAGGGAAA,-0.272 E-score

row,Sequence,binding signal
1,CCCGTACA,0.128 E-score
2,CACGCTTC,0.24 E-score
3,GCGAATGA,-0.0837 E-score
4,ACGCTGCC,-0.011 E-score
5,AACGACCA,-0.149 E-score
6,AACGCCGC,-0.0363 E-score
7,GACTCATA,-0.137 E-score
8,AGTATAGG,0.0123 E-score
9,GGTCTTTA,-0.114 E-score
10,GTTTGTGA,-0.0745 E-score
11,CAGTGCCC,-0.0721 E-score
12,CGTTCGGC,-0.00579 E-score
13,CCGAACGC,-0.117 E-score
14,AGCGACGA,-0.0849 E-score
15,ACACCAGT,0.48 E-score
16,CAGTTGGG,-0.00456 E-score
17,GGCGTCAA,0.177 E-score
18,AAATTTCA,-0.216 E-score
19,AGGATAAG,-0.0991 E-score
20,GTTTACCA,-0.102 E-score
21,ACGCCGTG,0.185 E-score
22,GAAGGTGA,0.0846 E-score
23,AGTTCAAC,-0.0918 E-score
24,GAGTGTGC,0.184 E-score
25,AGCAGGTA,-0.0666 E-score

row,Sequence,binding signal
1,AAGTGAGC,-0.0874 E-score
2,GATTTCGC,-0.154 E-score
3,AGCTTCGG,-0.0407 E-score
4,CAACTGTA,-0.18 E-score
5,ATGTTCGG,-0.159 E-score
6,ATGGTCCG,-0.316 E-score
7,CTCCAAGC,-0.0987 E-score
8,ATTTTAGC,-0.0948 E-score
9,AAGTATCC,0.107 E-score
10,AGCGTCAT,-0.0766 E-score
11,TCACGGGA,-0.0702 E-score
12,ACCGACCA,0.051 E-score
13,ATTCTGGG,-0.083 E-score
14,CTCTTCAG,-0.143 E-score
15,CGTTAAGC,-0.0682 E-score
16,GATCAAGA,-0.108 E-score
17,GCCGGTAC,-0.0416 E-score
18,ATCATGAT,-0.164 E-score
19,AGTCCGGG,0.0067 E-score
20,CTTCGTTA,-0.369 E-score
21,ACCTTGCT,0.0164 E-score
22,AGATCTAA,-0.129 E-score
